Laboratory results: patent US5225528A, “Cyclic hexapeptide oxytocin antagonists” (priority 1990, dated 1993)
At least one peptide structure holds a part that was inferred or is arguable (an end, a ring closure or a residue). For some of these results: For at least one compound, name, drawing or mass did not settle the structure. Numbered stars: 1 amine (or outer) side, 2 acyl side, 3 side chain; on linkers, the order of the positions; unused ones are H or OH. Square brackets hold non-standard residues; d marks the D form. Peptide text beside a SMILES is read from it. * marks the point of attachment. ξ: configuration not given here. X11 = C=CCN([C@H](Cc1ccccc1)C(=O)[*:2])[*:1]; d(cisHyp) = O=C(O)[C@H]1C[C@@H](O)CN1; cisHyp = O=C(O)[C@@H]1C[C@H](O)CN1; dNMeF = CN[C@H](Cc1ccccc1)C(=O)O; ξmTyr = NC(Cc1cccc(O)c1)C(=O)O; dOrn = NCCC[C@@H](N)C(=O)O; ΔPro = O=C(O)[C@@H]1C=CCN1; Pip = O=C(O)[C@@H]1CCCCN1; dPip = O=C(O)[C@H]1CCCCN1; Boc = CC(C)(C)OC(=O)*; tBu = CC(C)(C)*

Legend:
uterine OT receptors = molecular target: T1, uterine OT receptors (Rattus norvegicus, UniProt P70536); assay: [^3 H]OT binding to uterine OT receptors, crude membrane preparation of uteri from DES-treated rats; conditions: rat uterus membranes, 1 nM [^3 H]OT; read-out: Receptor Binding Results IC50 (nM) [^3 H]OT
T1 construct: from tissue; host or cells: uterus of DES-treated rats, crude membranes
T1 sequence (P70536 1-388): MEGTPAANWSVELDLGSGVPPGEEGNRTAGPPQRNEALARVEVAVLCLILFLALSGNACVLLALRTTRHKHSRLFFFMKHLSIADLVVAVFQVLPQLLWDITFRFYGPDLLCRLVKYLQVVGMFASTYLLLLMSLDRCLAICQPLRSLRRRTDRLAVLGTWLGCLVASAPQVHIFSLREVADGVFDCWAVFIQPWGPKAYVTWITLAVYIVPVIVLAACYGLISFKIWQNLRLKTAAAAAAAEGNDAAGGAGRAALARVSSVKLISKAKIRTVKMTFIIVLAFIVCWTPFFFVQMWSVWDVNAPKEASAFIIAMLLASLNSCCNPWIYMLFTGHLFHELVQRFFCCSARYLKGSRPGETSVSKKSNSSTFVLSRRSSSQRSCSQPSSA
Experimental: Competition studies were conducted at equilibrium (60 minutes; 22° C.) using 1 nM [^3 H]OT in the following assay buffer: 50 mM Tris-HCl, 5 mM MgCl2, and 0.1% BSA, pH 7.4.

AVP-V2 sites = molecular target: T2, AVP-V2 sites (Rattus norvegicus, UniProt Q00788); assay: [^3 H]AVP binding to crude membrane preparation of male rat kidney medulla (AVP-V2 sites); conditions: rat kidney medulla membranes, 2 nM [^3 H]AVP; read-out: Receptor Binding Results IC50 (nM) [^3 H]-AVP-V2
T2 construct: male rat liver (AVP-V1 sites) or kidney medulla (AVP-V2 sites); from tissue; host or cells: male rat kidney medulla, crude membranes
Experimental: (§1) Nonspecific binding (5-10% of the total binding) was determined using 10 μM unlabeled AVP, and the binding reaction was terminated by filtration as described above for the [^3 H]OT binding assay.

AVP-V1 sites = molecular target: T3, AVP-V1 sites (Rattus norvegicus, UniProt P30560); assay: [^3 H]AVP binding to crude membrane preparation of male rat liver (AVP-V1 sites); conditions: rat liver membranes, 1 nM [^3 H]AVP; read-out: Receptor Binding Results IC50 (nM) [^3 H]-AVP-V1
T3 construct: crude membrane preparation of male rat liver (AVP-V1 sites); from tissue; host or cells: male rat liver, crude membranes
Experimental: as §1

T2 sequence (Q00788 whole entry): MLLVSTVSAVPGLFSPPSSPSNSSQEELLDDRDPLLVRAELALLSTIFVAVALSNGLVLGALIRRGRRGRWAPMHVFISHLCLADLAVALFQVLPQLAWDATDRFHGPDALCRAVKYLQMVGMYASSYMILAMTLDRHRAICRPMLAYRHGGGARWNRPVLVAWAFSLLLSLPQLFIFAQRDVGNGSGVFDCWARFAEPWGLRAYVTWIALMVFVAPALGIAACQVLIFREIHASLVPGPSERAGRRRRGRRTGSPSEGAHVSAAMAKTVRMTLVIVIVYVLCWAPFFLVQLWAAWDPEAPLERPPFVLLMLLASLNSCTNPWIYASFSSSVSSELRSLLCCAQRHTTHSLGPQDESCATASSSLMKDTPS
T3 sequence (P30560 whole entry): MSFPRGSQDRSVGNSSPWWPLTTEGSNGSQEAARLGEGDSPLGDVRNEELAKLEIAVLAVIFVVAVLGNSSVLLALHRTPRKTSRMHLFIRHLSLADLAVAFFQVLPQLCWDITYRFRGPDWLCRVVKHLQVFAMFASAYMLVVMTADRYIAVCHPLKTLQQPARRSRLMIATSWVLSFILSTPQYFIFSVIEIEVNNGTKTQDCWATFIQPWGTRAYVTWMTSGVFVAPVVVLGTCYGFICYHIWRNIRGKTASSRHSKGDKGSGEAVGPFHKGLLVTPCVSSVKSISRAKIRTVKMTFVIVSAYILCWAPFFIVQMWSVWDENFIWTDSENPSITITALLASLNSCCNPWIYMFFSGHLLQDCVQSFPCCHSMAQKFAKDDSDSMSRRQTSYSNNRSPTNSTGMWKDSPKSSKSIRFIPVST

Structure (SMILES) | IC50 (uterine OT receptors) | IC50 (AVP-V2 sites) | IC50 (AVP-V1 sites)
CC[C@H](C)[C@@H]1NC(=O)[C@@H](Cc2ccccc2)NC(=O)[C@@H]2CCCN2C(=O)[C@@H](Cc2ccccc2)N(C)C(=O)[C@@H]2CCCCN2C(=O)[C@H]2CCCCN2C1=O [Example 1, Cyclo-[D-Phenylalanyl-L-isoleucyl-D-pipecolyl-L-pipecolyl-D-(N^α-methyl)-phenylalanyl-L-prolyl]] (cyclo(I[dPip][Pip][dNMeF]P[dF])) | 240 nM | – | –
CC[C@H](C)[C@@H]1NC(=O)[C@@H](Cc2ccccc2)NC(=O)[C@@H]2CCCN2C(=O)[C@@H](Cc2ccccc2)NC(=O)[C@@H]2C[C@H](O)CN2C(=O)[C@H]2CCCN2C1=O [Example 74, c-[D-Phenylalanyl-L-isoleucinyl-D-prolyl-L-cis-hydroxyprolyl-D-phenylalanyl-L-prolyl]] (cyclo(I[dP][cisHyp][dF]P[dF])) | 4400 nM | – | –
CC[C@H](C)[C@@H]1NC(=O)[C@@H](Cc2ccccc2)NC(=O)[C@@H]2CCCN2C(=O)[C@@H](Cc2ccccc2)NC(=O)[C@H]2C[C@@H](O)CN2C(=O)[C@H]2CCCN2C1=O [Example 75, c-[D-Phenylalanyl-L-isoleucinyl-D-prolyl-cis-D-hydroxyprolyl-D-phenylalanyl-L-prolyl]] (cyclo(I[dP][d(cisHyp)][dF]P[dF])) | > 10000 nM | – | –
CC[C@H](C)[C@@H]1NC(=O)[C@@H](Cc2ccccc2)NC(=O)[C@@H]2CCCN2C(=O)[C@@H](Cc2ccccc2)N(C)C(=O)[C@@H]2CCCCN2C(=O)[C@H]2CCCCN2C1=O [Example 104, c-[D-Phenylalanyl-L-isoleucyl-D-pipecolyl-L-pipecolyl-D-N-methyl-phenylalanyl-L-prolyl]] (cyclo(I[dPip][Pip][dNMeF]P[dF])) | 204 nM | – | –
C[C@@H](OC(C)(C)C)[C@@H]1NC(=O)[C@@H](Cc2ccccc2)NC(=O)[C@@H]2CCCN2C(=O)[C@@H](Cc2ccccc2)N(C)C(=O)[C@@H]2CCCCN2C(=O)[C@H]2CCCCN2C1=O [Example 106, c-[D-Phenylalanyl-L-(O-tert-butyl)-threonyl-D-pipecolyl-L-pipecolyl-D-N-methyl-phenylalanyl-L-prolyl]] (cyclo(P[dF]T(tBu)[dPip][Pip][dNMeF])) | 1900 nM | – | –
CC[C@H](C)[C@@H]1NC(=O)[C@@H](Cc2ccccc2)NC(=O)[C@@H]2CCCN2C(=O)[C@@H](Cc2ccccc2)N(C)C(=O)[C@@H]2CCCCN2C(=O)[C@@H](CCCNC(=O)OC(C)(C)C)NC1=O [Example 107, c-[D-Phenylalanyl-L-isoleucyl-D-(N^δ -Boc)-ornithyl-L-pipecolyl-N-methyl-D-phenylalanyl-L-prolyl]] (cyclo(I[dOrn](Boc)[Pip][dNMeF]P[dF])) | > 10000 nM | – | –
CC[C@H](C)[C@@H]1NC(=O)[C@@H](Cc2ccccc2)NC(=O)[C@@H]2CCCN2C(=O)[C@@H](Cc2ccccc2)N(C)C(=O)[C@@H]2CCCCN2C(=O)[C@H]2CCCN2C1=O [Example 110, c-[D-Phenylalanyl-L-isoleucyl-D-prolyl-L-pipecolyl-N-methyl-D-phenylalanyl-L-prolyl]] (cyclo(I[dP][Pip][dNMeF]P[dF])) | 500 nM | – | –
CC[C@H](C)[C@@H]1NC(=O)[C@@H](Cc2ccccc2)NC(=O)[C@@H]2CCCN2C(=O)[C@@H](Cc2ccccc2)N(C)C(=O)[C@@H]2CCCCN2C(=O)[C@@H](CCCN)NC1=O [Example 113, c-[D-Phenylalanyl-L-isoleucyl-D-ornithyl-L-pipecolyl-N-methyl-D-phenylalanyl-L-prolyl]] (cyclo(I[dOrn][Pip][dNMeF]P[dF])) | > 10000 nM | – | –
C=CCN1C(=O)[C@@H]2CCCCN2C(=O)[C@H]2CCCCN2C(=O)[C@H]([C@@H](C)CC)NC(=O)[C@@H](Cc2ccccc2)NC(=O)[C@@H]2CCCN2C(=O)[C@H]1Cc1ccccc1 [Example 123, c-[D-Phenylalanyl-L-isoleucyl-D-pipecolyl-L-pipecolyl-N-allyl-D-phenylalanyl-L-prolyl]] (cyclo(I[dPip][Pip][X11]P[dF])) | 185 nM | – | –
CC[C@H](C)[C@@H]1NC(=O)C(Cc2cccc(O)c2)NC(=O)[C@@H]2CCCN2C(=O)[C@@H](Cc2ccccc2)N(C)C(=O)[C@H](CCCCN)NC(=O)[C@H]2CCCCN2C1=O (stereo partly drawn) [Example 146, C-[D,L-meta-Tyrosyl-L-isoleucyl-D-pipecolyl-L-lysyl-D-(N-methyl)phenylalanyl-L-prolyl]] (cyclo(I[dPip]K[dNMeF]P[ξmTyr])) | 300 nM | 11000 nM | 16000 nM
CC[C@H](C)[C@@H]1NC(=O)[C@@H](Cc2c[nH]c3ccccc23)NC(=O)[C@@H]2C=CCN2C(=O)[C@@H](Cc2c[nH]cn2)NC(=O)[C@@H]2CCCCN2C(=O)[C@H]2CCCCN2C1=O [Example 152, c-[D-Tryptophanyl-L-isoleucyl-D-pipecolyl-L-pipecolyl-D-histidyl-3,4-dehydroprolyl]] (cyclo(I[dPip][Pip][dH][ΔPro][dW])) | 130 nM | – | –
